Test results published in the supplement of paper PMC3334620.
In all, about 33,000 sequences were measured (“E-score (-0.5 to 0.5)”: median about -0.032, highest 2% from about 0.36 on). Some of the results follow.

Each sequence was assayed against T1, Sko1 (UniProt Q02100) (assay: PBM E-score (8-mer binding enrichment) (E-score (-0.5 to 0.5)); higher = stronger / more preferred TF binding; most listed sequences are background and not binding sites). Conditions: protein concentration: 200 nM; construct: GST-full length.
T1 sequence: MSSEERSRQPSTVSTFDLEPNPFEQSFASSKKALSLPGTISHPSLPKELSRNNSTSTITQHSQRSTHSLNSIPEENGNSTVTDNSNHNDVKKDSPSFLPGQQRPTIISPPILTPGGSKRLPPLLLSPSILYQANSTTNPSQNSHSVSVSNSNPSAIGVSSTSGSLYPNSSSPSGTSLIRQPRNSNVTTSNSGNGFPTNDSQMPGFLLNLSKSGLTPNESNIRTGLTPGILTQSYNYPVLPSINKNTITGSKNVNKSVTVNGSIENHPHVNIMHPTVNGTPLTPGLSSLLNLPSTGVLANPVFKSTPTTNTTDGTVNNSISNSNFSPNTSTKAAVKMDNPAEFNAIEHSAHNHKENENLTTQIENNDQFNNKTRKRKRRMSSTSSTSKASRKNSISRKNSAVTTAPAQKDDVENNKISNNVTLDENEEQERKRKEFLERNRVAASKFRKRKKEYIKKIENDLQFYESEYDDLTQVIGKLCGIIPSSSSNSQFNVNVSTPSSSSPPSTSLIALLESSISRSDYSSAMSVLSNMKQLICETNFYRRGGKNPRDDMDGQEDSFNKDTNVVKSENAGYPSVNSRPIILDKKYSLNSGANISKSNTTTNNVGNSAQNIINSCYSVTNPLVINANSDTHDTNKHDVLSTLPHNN
Procedure: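 Universal 'all 10-mer' protein binding microarrays (Agilent AMADID 015681) probed with GST-tagged S. cerevisiae TFs (full-length or DBD) made by in vitro transcription/translation (PURExpress), about 100-200 nM. Bound TF was detected with fluorescent anti-GST. Each ungapped 8-mer (which stands for itself and its reverse complement) is scored by the PBM enrichment score (E-score), a modified Wilcoxon-Mann-Whitney statistic from -0.5 to +0.5, computed with the Universal PBM Analysis Suite. Scale: above 0.35 generally sequence-specific binding.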

Sequence	PBM E-score
AGTTTCTC	0.0779
AAATGTAA	0.268
ACCATTTC	-0.0823
CCCGTAAG	0.16
AACCCATC	-0.0434
ATGGACAT	0.0678
GTAGTGTA	0.0916
CCTCTTTA	-0.0107
GCTAAAGC	0.0769
CCTAGATC	-0.152
ATTATTGG	0.0249
ACTCTGCA	-0.0947
CGTACAGC	0.173
GCGAGCCA	-0.133
CAGATCGG	-0.0654
ATCACCTG	-0.164
TAAGTGAA	-0.0196
CGCCACCC	-0.226
GGCAAGAC	-0.0442
GACCCAAA	0.159
GTTATTCA	0.241
ATGCACTA	0.0929
AGCGATAT	0.112
GCCCTCCC	-0.207
CCAATTGA	-0.125

Sequence	PBM E-score
CAAAATAC	0.199
CGGTATAA	0.0532
AGGCCTAC	-0.0212
ATATCCTG	-0.0296
CGGTTAAC	0.0142
AACAGATT	0.0462
AAGCCGTG	-0.175
CGGGTTTC	-0.0891
CATCGTTA	-0.0268
GACCTCAC	0.0442
CATTGTGG	-0.248
ATTCATTA	0.185
TCCCAGCA	-0.208
AAAACGCC	0.0157
GAGGGCCA	-0.282
AGACTGGC	-0.23
CTGTTGCA	-0.0821
ACCTCTTC	-0.0962
GCTATCTA	-0.138
GGCTTACC	-0.304
CTTCACTC	-0.094
AAAACACT	0.0948
CGTTAAGC	0.193
CCAAGTAC	-0.0618
AGGCCCTC	-0.274

Sequence	PBM E-score
AACGAGAT	-0.0162
AGAACGTC	0.314
GATTCTCA	0.0391
AGGGACGC	-0.0218
ACCTGCGC	-0.192
AGGCATCG	-0.0424
AAGCTGTC	-0.0996
GAGTCTGC	-0.218
GAACGTAA	0.428
CCCTAACA	0.0661
CAGCCTTC	-0.239
GTACTGGA	0.194
AGTCCCGC	-0.313
ACGTTGGA	0.247
CACCTATA	0.0337
GACGGTAA	0.0496
AGACGTCG	0.21
ACAAAGGA	0.0747
CTCCAATA	-0.00438
CAATTAGG	0.127
ATCGGCCG	-0.229
GAAGCGAA	0.116
ACATTCGT	0.267
AGTATCGG	-0.172
ATGATTAA	0.271

Sequence	PBM E-score
TCACACGA	0.145
ACAGACTG	-0.15
GCCCTGAC	0.0454
TACACTGA	-0.0145
GTAAAGAC	0.127
CCCTCAAA	-0.174
CACTGAGC	-0.00114
GTGAGAAC	-0.0909
AGCAACCC	-0.00364
AGGGATCA	-0.181
ATTAATTC	0.28
AACGGGGT	-0.179
AGAAAACA	0.206
CGGAAACC	-0.336
ACAAATGC	0.227
AAAGGACA	-0.081
GTCATGGA	0.163
TAGCCGCA	-0.188
CAGGACAG	-0.281
ATCAAATC	0.123
GAGGCCAA	-0.0813
CCGATTAC	0.0359
AATTGAGA	0.0849
TACCACTA	0.197
AAGAAACA	0.184

Sequence	PBM E-score
GGGCACCC	-0.277
ACCAGTAT	-0.227
AATATCGT	0.263
GTAGACCA	-0.0147
CGTTTCAA	0.119
ATTGGATA	0.0738
TGCTAACA	0.0675
ATCTTATG	0.0516
ACCTGGCA	-0.0795
AAATTTCA	0.0326
ACTGGGTA	0.0095
AGGGCAGG	-0.323
CGGGAGGA	-0.211
GATGGCGA	0.0644
AGAATACA	0.00326
GAGACCAA	-0.0994
CAATGACA	0.229
CTACAGCA	-0.0464
ACTAAAAA	0.119
GCCTTTTA	0.0198
GATCTTCA	0.00428
AATTAAGA	0.0436
CTAGACAG	-0.298
CGTTCTAG	-0.0071
CTCGAAAG	-0.101

Sequence	PBM E-score
ACTCCCAA	-0.188
ACTAGTAC	0.0236
CGATCACA	0.17
GAGACATA	0.00577
GCATTCAA	-0.0759
CCCTAATA	-0.0693
GCTGTTGA	0.0627
GTGTGCAA	0.22
ACGATGAG	0.124
CGGACGCA	-0.121
ATATTACG	0.465
CCACCCCA	0.0839
CATAAGTA	0.0019
AATGGTAA	0.168
CAAACTGA	-0.00112
CGCCTGAG	-0.229
GAAATAAA	0.114
ACACACCT	-0.00417
CGACCGCG	-0.205
GCACGGCC	-0.273
ATGGGACA	-0.359
CATTAGAA	0.191
ACTTACTC	-0.146
ACTATGAT	0.167
ACATTAGC	0.124

Sequence	PBM E-score
CGCCTCGC	-0.116
CGCCCGTA	-0.285
AATGATCG	0.0428
ATTTATAG	0.158
ACCACGAG	-0.163
AGCTTGTC	0.00999
AGAAGCTC	-0.203
CATAAGAG	-0.0273
AACGGTGG	-0.346
GGAGTGCC	-0.334
AGAGAGGG	-0.318
CATGCAGC	-0.0595
AAAGCTGC	0.0278
ATGCCTCG	0.142
ACCGGGCA	-0.356
GTCAATCA	0.196
AAATGTCT	0.0489
AATGAGCC	-0.308
ATCTTCCC	-0.0771
CCAAGATC	-0.101
AACCGATG	-0.206
GCCCGACA	-0.0508
CGCGTCCG	-0.0181
ACGATGAC	0.336
ACTGCACG	-0.0427

Sequence	PBM E-score
CGCTCGTC	0.133
GATGATTA	0.15
ACGTTTCC	0.294
CGTCCGCA	0.00964
CGCTCCAA	-0.0541
CGGAGTTA	-0.203
GTTCTAAA	-0.105
TCGAGGAA	-0.172
CCCCGAGA	-0.23
GCCTACAA	-0.169
AACACTTG	-0.118
CACACTTA	0.183
GCAACGTA	0.399
GAGGAGTA	0.2
AGTGGCTG	-0.228
AGGCCTGA	-0.144
CGATCCAA	-0.177
ATCGAATG	0.166
CTATGTAA	0.19
AGCACTAT	-0.0166
CTAAAAGA	0.0123
ACAACATC	0.153
TATATTGA	0.172
ATCCGATC	0.0509
GCTTATCA	-0.0774

Sequence	PBM E-score
AATAACGC	0.106
GGTGAACC	-0.061
CTCGTGGC	-0.219
CCCCGATA	-0.169
AGTCTATC	-0.188
CCCTTAAG	-0.0627
AACGGCCT	-0.304
CCTAAGTA	-0.0946
CCGGTGTA	-0.27
AGTTAGAA	-0.0939
ACTCGTAC	0.084
GGCTAACA	-0.0118
CCAACTGG	-0.12
ATTAACTA	0.216
ATACCGAC	0.00626
ATTAATGG	0.214
ATATACCA	0.0399
GCTGAGTA	-0.306
TAGGTGGA	0.0623
